Consider 50 sequences from the supplement of paper PMC12645437, “Orthogonal IMiD-Degron Pairs Induce Selective Protein Degradation in Cells” (ACS Chemical Biology, 2025).

The other results are listed elsewhere or left out.
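Note: jurkat cells carrying a lentiviral library of mutant zinc finger degrons fused to EGFP plus mCherry, mCherry+ cells FACS sorted, degron abundance counted by next-generation sequencing.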

The target of the assay is no compound (DMSO). Put plainly: log2 fold change of degron read counts, EGFP-low vs EGFP+ sorted cells; higher = lower degron-EGFP level without compound (poor expression or instability). The note with it: compound: DMSO control; 18 h.
FGCEICGRFFTQKGNLLRHIKL: the “log2 fold change of degron read counts” value was 0.365.

With FWCEICGHGFTQKGNLLRHIKL, the “log2 fold change of degron read counts” value is -0.371.

As for FNCSVCGHTFTQKGNLLRHIKL, the “log2 fold change of degron read counts” value was -0.226.

On to FYCPQCGAGFTQKGNLLRHIKL, for which the “log2 fold change of degron read counts” value is -0.456.

FRCEICGHNFTQKGNLLRHIKL: the “log2 fold change of degron read counts” value was -1.08.

For the sequence FQCPVCGACFTQKGNLLRHIKL, the “log2 fold change of degron read counts” value is -0.169.

FNCSVCGHSFTQKGNLLRHIKL: the “log2 fold change of degron read counts” value was -0.652.

In the case of FICDQCGACFTQKGNLLRHIKL, the “log2 fold change of degron read counts” value was -2.67.

Turning to LYCPICGFQCTQKGNLLRHIKL, the “log2 fold change of degron read counts” value was 0.844.

As for FTCDVCGAFFTQKGNLLRHIKL, the “log2 fold change of degron read counts” value was -1.01.

As to FVCNQCGAYFTQKGNLLRHIKL, the “log2 fold change of degron read counts” value is -0.151.

For FCCPICGHAFTQKGNLLRHIKL, the “log2 fold change of degron read counts” value is -0.0166.

In the case of FKCDQCGAAFTQKGNLLRHIKL, the “log2 fold change of degron read counts” value is -2.73.

For FYCPVCGAEFTQKGNLLRHIKL, the “log2 fold change of degron read counts” value stood at 0.0409.

On to LDCNQCGFNCTQKGNLLRHIKL, for which the “log2 fold change of degron read counts” value was 0.173.

Consider FTCEICGRKFTQKGNLLRHIKL, for which the “log2 fold change of degron read counts” value is -1.53.

FCCDVCGAQFTQKGNLLRHIKL: the “log2 fold change of degron read counts” value was -1.38.

Take FTCNQCGHVFTQKGNLLRHIKL: the “log2 fold change of degron read counts” value is -0.935.

As for FSCPVCGAGFTQKGNLLRHIKL, the “log2 fold change of degron read counts” value was -0.698.

For the sequence FSCNQCGHNFTQKGNLLRHIKL, the “log2 fold change of degron read counts” value was determined as 0.127.

For FSCPVCGAAFTQKGNLLRHIKL, the “log2 fold change of degron read counts” value worked out at 0.18.

As to FHCNVCGAEFTQKGNLLRHIKL, the “log2 fold change of degron read counts” value is -1.98.

In the case of LMCEICGFYCTQKGNLLRHIKL, the “log2 fold change of degron read counts” value is 0.848.

Consider FHCPICGAVFTQKGNLLRHIKL, for which the “log2 fold change of degron read counts” value is -0.319.

On to FSCPQCGANFTQKGNLLRHIKL, for which the “log2 fold change of degron read counts” value was -0.656.

Take FLCNICGACFTQKGNLLRHIKL: the “log2 fold change of degron read counts” value is -1.07.

As to FGCPICGRIFTQKGNLLRHIKL, the “log2 fold change of degron read counts” value was determined as 0.685.

For FECNVCGATFTQKGNLLRHIKL, the “log2 fold change of degron read counts” value is -1.26.

As for FACPVCGACFTQKGNLLRHIKL, the “log2 fold change of degron read counts” value is -0.0038.

For the sequence FICPICGHWFTQKGNLLRHIKL, the “log2 fold change of degron read counts” value was -0.0911.

FMCNQCGHMFTQKGNLLRHIKL: the “log2 fold change of degron read counts” value worked out at 0.312.

FCCNVCGAMFTQKGNLLRHIKL: the “log2 fold change of degron read counts” value was -0.191.

LRCNQCGFWCTQKGNLLRHIKL: the “log2 fold change of degron read counts” value was 1.86.

Regarding FLCNQCGRAFTQKGNLLRHIKL, the “log2 fold change of degron read counts” value is -0.576.

Regarding FLCPICGHLFTQKGNLLRHIKL, the “log2 fold change of degron read counts” value worked out at 0.448.

FICDVCGAVFTQKGNLLRHIKL: the “log2 fold change of degron read counts” value is -1.01.

In the case of FFCNICGATFTQKGNLLRHIKL, the “log2 fold change of degron read counts” value was -0.0356.

As to FGCEICGRYFTQKGNLLRHIKL, the “log2 fold change of degron read counts” value was -0.416.

As to FYCPICGAWFTQKGNLLRHIKL, the “log2 fold change of degron read counts” value turned out to be 0.979.

For FGCEQCGAVFTQKGNLLRHIKL, the “log2 fold change of degron read counts” value is -0.755.

With LICNQCGFQCTQKGNLLRHIKL, the “log2 fold change of degron read counts” value is -0.456.

For the sequence FMCPICGRPFTQKGNLLRHIKL, the “log2 fold change of degron read counts” value was -0.52.

With FNCEICGRVFTQKGNLLRHIKL, the “log2 fold change of degron read counts” value is -0.714.

For LGCNQCGFDCTQKGNLLRHIKL, the “log2 fold change of degron read counts” value was determined as 0.46.

For FRCNQCGAIFTQKGNLLRHIKL, the “log2 fold change of degron read counts” value was determined as 0.429.

Take FMCDQCGARFTQKGNLLRHIKL: the “log2 fold change of degron read counts” value was -1.81.

Consider FWCPICGRQFTQKGNLLRHIKL, for which the “log2 fold change of degron read counts” value amounted to 0.486.

For the sequence FHCNVCGAYFTQKGNLLRHIKL, the “log2 fold change of degron read counts” value is 0.177.

As to FCCPQCGAFFTQKGNLLRHIKL, the “log2 fold change of degron read counts” value was 0.0128.

For FHCDQCGASFTQKGNLLRHIKL, the “log2 fold change of degron read counts” value was -1.61.
